# Source: ChEMBL document CHEMBL4888484, “Replenishing the malaria drug discovery pipeline: Screening and hit evaluation of the MMV Hit Generation Library 1 (HGL1) against asexual blood stage Plasmodium falciparum ,using a nano luciferase reporter read-out” (2022)
# In all, about 150,000 compounds went through this assay and about 540 (0.36%) showed an effect of 50% or more. This is one part of the list.
# System: Plasmodium falciparum
# Test: Primary screen in NF54 nanoGlo assay, in single point, at 2uM, 72h; a lower Z score goes with more inhibition
# Assay type: functional, Erythrocyte
# Conditions: timepoint 72 hour
SMILES,% Inhibition [%],Z score
CC1CCCC(NC(C(=O)NC2CC2)c2ccccc2)C1C (stereo not given),-5,0.68
CCc1nc(C)sc1C(=O)N1CCC[C@H]1c1nc(C(C)C)no1,-21,1.96
CCN1CCN(C(=O)c2cccc(-c3ccccc3)n2)[C@H]2CS(=O)(=O)C[C@H]21,-12,1.08
Cc1ccccc1[C@@H](NCc1nccn1C)C1CCC(C)CC1 (stereo not given in full),4,-0.53
O=C(c1cnc(O[C@H]2CCOC2)c(Cl)c1)N1CCc2ccccc21,-5,1.01
CN1CCN(c2nc(O)c3c(n2)NC(=O)C[C@H]3c2c(F)cccc2F)CC1,28,-4.12
C[C@H](NCC1(C(N)=O)CCOCC1)c1cc2cc(Cl)ccc2o1,-1,0.13
CC(C)c1nsc(NCc2cccc(-c3nc(-c4ccncc4)no3)c2)n1,-7,1.01
CN1CCc2ccc(C(=O)Nc3ccc(-n4cncn4)nc3)cc21,-1,0.26
Cc1noc(C)c1N(C)S(=O)(=O)c1ccc(Cl)s1,-7,0.67
Cn1c(=O)cc(N(Cc2ccc(-n3cccn3)cc2)C2CC2)[nH]c1=O,-9,1.09
CC(C)Cc1cc(C(=O)N2C[C@@H]3CC[C@H]2CN(C2CCOCC2)C3)on1,-22,1.97
CCOc1ccc(OCC)c2sc(C)nc12,-10,1.24
O=C(Nc1ccc2nn(-c3cccc4ccccc34)nc2c1)c1sc2ccccc2c1Cl,4,-0.49
CCOC(=O)CN1CCC2(CC1)CCN(C(=O)c1ccccc1OC)CC2,-13,1.18
Cc1nc(C#N)c(N2CCN(C(=O)CN3CCC(C)CC3)CC2)o1,-8,1.11
O=C1NCCN1CCn1cnc(-c2ccccc2)c1-c1ccc(F)c(F)c1,-10,0.95
O=C(NCC1(O)CCC2(CC1)OCCO2)Nc1ccccc1C(F)(F)F,33,-3.72
Cc1ccc(NC(=O)Nc2ccccc2C#N)cc1NC(=O)Nc1ccccc1C#N,3,-0.49
CC1(C)[C@H](Cc2cc(CN3CCCCC3)on2)C[C@@H]1NC(=O)c1ccco1,0,0.03
O=C(N[C@H](c1ccc(F)cc1)C1CCCC1)C1CCC(O)CC1 (stereo not given in full),8,-0.83
CC(=O)Nc1ccc(Cc2nc(-c3ccc(NS(=O)(=O)c4cccs4)cc3)no2)cc1,-8,0.97

SMILES,% Inhibition [%],Z score
CCOC(=O)c1csc(Nc2ncccn2)n1,13,-1.67
O=C1CCC(=O)N1C1CCC(NCc2c[nH]nc2-c2cccc(Cl)c2)CC1 (stereo not given),-1,0.16
Nc1cccc(-n2ccnc2-c2cccc(C(=O)O)c2)n1,-8,1.2
Cc1nccn1Cc1c(C(=O)O)c2cc(O)c(Br)cc2n1C,32,-3.63
COc1ccc2c(c1)C(N1CCN(C(=O)CC(C)(C)C)CC1)=Nc1ccccc1O2,1,-0.13
CCNC(=O)c1nn(-c2ccc(Cl)cc2)c2c(=O)n(C)cnc12,-12,1.09
CC(C)Cc1ccccc1CNC(=O)Nc1nnc(C2CCOCC2)s1,-15,2.29
CC12CCC(C(=O)N3CCCC3)(c3nc4ccccc4nc31)C2(C)C (stereo not given),-20,3.81
CC1CCN(S(=O)(=O)c2ccc(-c3cn4ccccc4n3)cc2)CC1,-20,3.74
Cc1nc(C2(C)CCN(S(=O)(=O)c3ccc4c(c3)CCC4)CC2)no1,-8,1.03
O=S(=O)(c1ccc(Br)c2ccccc12)N1CCCc2ccccc21,-5,1.02
O=C(O)C1=C[C@@H](c2cccc3ccccc23)n2ncnc2N1,-4,0.54
CN1CCN(S(=O)(=O)N[C@@H](CO)c2ccc(F)cc2)CC1,-12,2.47
C[C@H](NC(=O)Nc1ccc(F)cn1)c1nnnn1C1CC1,-5,0.69
Cc1cccc(N2CCN(C(=O)c3noc4c3C[C@@H](C)CC4)CC2)c1C,-1,0.26
CCN(CC)Cc1cnc2c(C(=O)N3CCN(c4ncccn4)CC3)cnn2c1,-10,1.02
Cc1ccc(F)c2[nH]c(C(=O)NC[C@H]3CC(=O)N(C)[C@@H]3c3cnn(C)c3C)cc12,-3,0.53
Cc1nc(N2CCOCC2)c2c(C(=O)N3CCN(c4ccccc4)CC3)c(C)oc2n1,5,-0.82
O=C(Cc1ccc(F)cc1)Nc1ccc(-c2cc3cc(Cl)ccc3[nH]2)cc1,-2,0.15
Cc1cc(C)n(-c2ccc(COc3nc(C(C)(C)C)no3)cc2)n1,-3,0.41
COc1cc(NC(=O)COc2ccccc2OC)ncn1,-5,0.96
Cc1cc(=O)[nH]c(NCCNC(=O)c2ccc(-c3sc(C)nc3C)cc2)n1,-5,0.43

SMILES,% Inhibition [%],Z score
O=C(NCC(F)F)C1CCCC(O)C1 (stereo not given),-6,0.71
O=c1ccc(Br)cn1Cc1nnc2n1CCCCC2,-3,0.4
CCN(Cc1ccccn1)[C@H]1CCc2ccccc2NC1=O,-7,0.8
O=C(NCc1ccc(Cl)cc1)N1CC[C@H](O)[C@@H](O)C1,-3,0.44
Cn1cncc1CN[C@H]1CCOc2ccc(F)cc21,-4,0.54
COc1ccc(NC(=O)c2c(C)nn(-c3ccccc3)c2C)cc1S(=O)(=O)N1CCOCC1,-5,0.93
COc1ccc(CN[C@H](C)c2onc(-c3ccccc3)c2C(=O)O)cc1,-5,0.76
C[C@H]1CN(C(=O)C2(C#N)CCOCC2)C[C@]1(O)C1CC1,-6,1.07
CN1CCC[C@H](CCc2nc(Cc3cccc(Cl)c3)nn2CCO)C1,1,-0.05
Cc1nn(C)c2nc(NCCN3CCC[C@H](CO)C3)sc12,-4,0.8
COc1ccccc1NC(=O)c1c(C)n[nH]c1NCc1cnnn1C,13,-1.54
COc1cc(N[C@@H](C)c2ccc(N3CCOCC3)cc2)ncn1,-6,1.25
C=CCc1cc(C(=O)N2CC[C@]3(OC)CC[C@H](OC)C[C@H]23)ccc1OC,1,-0.21
O=C(Nc1ccc(-n2cccc(C(=O)NC3CCCCC3)c2=O)cc1)c1ccccc1,23,-3.31
Cc1ncsc1CN(C)[C@H]1CCc2nn(C)c(=O)n2CC1,-5,0.75
O=C1NC2(CCN(Cc3ccc(F)cc3)CC2)Nc2cccc(F)c21,-11,1.06
Cc1ncsc1C(=O)N1CC(n2nccn2)C1,-9,1.05
O=C(CC(F)(F)F)NCc1ccccc1F,1,-0.13
N#Cc1cc2n(c1N)-c1ccccc1C2=O,-2,0.3
Cc1cc(C)n([C@@H](C)CNC(=O)Nc2cc3c(cc2C)n(C)c(=O)n3C)n1,-7,0.98
COc1cccc(N2C[C@H](C)N(C(=O)c3cnc4ccnn4c3C)CC2=O)c1,-6,0.94
CCC1CN(C(=O)CCn2nc3ccccn3c2=O)C1,-13,1.5

SMILES,% Inhibition [%],Z score
Cc1ccc(Cn2ccn3nc(-c4ccc5c(c4)OCO5)cc3c2=O)cc1,-10,1.22
CCn1cc(C2OCCC2CNCc2occc2C)cn1 (stereo not given),5,-0.72
O=C([C@H]1CC(=O)N(c2ccccc2)C1)N1CCN(c2ncnc3c2nnn3-c2cccc(F)c2)CC1,-9,1.64
Clc1c(CNc2nc(C3CC3)ns2)nc2ccccn12,-19,2.42
O=C(O)C12CC(C(=O)N3CCC(OCc4ccc(F)cc4)CC3)(C1)C2,1,-0.15
CC(C)C(C(=O)N1CC[C@@H](O)C1)N1CCCCC1 (stereo not given in full),9,-1.83
COC[C@@H]1CN(Cc2ccc(Br)o2)C[C@H]1c1nc(C)no1,-13,2.29
COc1ccc(CC(=O)c2ccc(O)c(CN3CCN(C)CC3)c2O)cc1,-11,1.42
O=C(NCc1nc(C2CC2)no1)c1ccc(Nc2ccncc2)cc1,-10,2.13
CC(=O)Nc1nnc([C@H]2CC(=O)N(c3ccc(Cl)cc3)C2)s1,-13,2.3
CC(C)N(C1CC1)S(=O)(=O)c1ccc(OCC(F)(F)F)nc1,3,-0.44
N#Cc1c(-c2ccccc2OCCN2CCOCC2)cc(C2CC2)nc1N,-13,2.17
CCOc1ccc(CN2CCO[C@]3(CNCCOC3)C2)cc1Cl,0,-0.05
O=C1NCCCC[C@@H]1Oc1ccc(OCc2nnc3n2CCCCC3)cc1,1,-0.17
Cc1ccsc1CN1CCC(C(=O)O)(n2cccn2)CC1,-4,0.7
CN1CCCCC[C@H]1c1nc(CC(N)=O)nn1-c1ccc(F)c(F)c1,-2,0.26
CC(COC1CCOC1)NC1CCc2c(Br)cc(Cl)cc21 (stereo not given),-6,0.99
O=C(Cc1cccc2ccccc12)N[C@H]1CCN(c2nccs2)C1,-3,0.51
CCc1cc([C@@H]2CCCN2Cc2cc(OC)cc(OC)c2)on1,-14,1.81
